Measurements reported in PubChem BioAssay AID686979 (National Center for Advancing Translational Sciences (NCATS), 2013).
Hit rate of the full screen: of about 420,000 compounds, about 50,000 (12%) were called active. Inconclusive means that the source gave no clear call. Such entries were picked first, then a sample of the others. Calls follow the shape of the dose curve; as a rule, active = well fitted inhibition curve with a large enough effect; inconclusive = small, poorly fitted or top-dose-only effect; inactive = flat fitted curve, though single readings scatter. No potency is given beside an inconclusive call; the fits are too rough.

Assay: qHTS for Inhibitors of human tyrosyl-DNA phosphodiesterase 1 (TDP1): qHTS in cells in presence of CPT; also: nearly all actives have a fitted effect of over 55% in size
Conditions: chicken DT40 Tdp1-/-;hTDP1 cells + 20 nM CPT, ATP luminescence, 48 h; activity change, negative = growth inhibition: at 46.2 µM (top of the series)
Method in brief: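 Chicken DT40 Tdp1-/- cells stably complemented with human TDP1 were seeded at 400 cells/well in medium containing 20 nM camptothecin, exposed to pin-transferred compounds, and grown at 37 °C for at least 48 hr. Viability was read as ATP luminescence.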
% is scaled to controls: 0 for no effect and ±100 for the full control effect; potency is read from the fitted curve at half-maximal effect; tags tell the direction and shape of the fitted curve.

Row | Compound | activity change, negative = growth inhibition | Potency
1 | COc1ccc(NC(=O)C(=O)NCCCn2ccnc2)cc1 | inactive: 5.76% | –
2 | COc1ccc(-c2nc(CS(=O)CC(=O)NCc3ccco3)c(C)o2)cc1OC (stereo unspecified) | – | inconclusive [inhibitor, single point]
3 | CC(C)OC(=O)/C(=C\c1cccnc1)NC(=O)c1ccccc1 | inactive: -2.94% | –
4 | CCOC(=O)C1=C(N)Oc2cc(O)ccc2C1c1cccc([N+](=O)[O-])c1 (stereo unspecified) | – | inconclusive [inhibitor, single point]
5 | Cc1cc(/C=N/NC(=O)c2cccc([N+](=O)[O-])c2)c(C)n1-c1ccc(Cl)cc1Cl | – | inconclusive [inhibitor, single point]
6 | CCCn1c2ccccc2c2cnn(CC(=O)N3CCCC(C(=O)OCC)C3)c(=O)c21 (stereo unspecified) | – | inconclusive [inhibitor, single point]
7 | COc1cc(OC)c(C(=O)Nc2cc(Cl)ccc2-n2cncn2)cc1OC | – | inconclusive [inhibitor, single point]
8 | O=S(=O)(Nc1ccccc1N1CCCCC1)c1ccc(Cl)s1 | – | active: 10.3 µM
9 | O=C(CCS(=O)(=O)c1ccccc1)Nc1nc2cc3c(cc2s1)OCO3 | – | inconclusive [inhibitor, single point]
10 | COc1ccccc1NC(=O)C(=O)NCc1ccncc1 | inactive: 1.77% | –
11 | Cc1[nH]n(-c2ccccc2)c(=O)c1/C=N/c1nn[nH]n1 | – | inconclusive [inhibitor, single point]
12 | NS(=O)(=O)c1ccc(CCNC(=O)c2ccc3c(c2)OCCO3)cc1 | inactive: 0.65% | –
13 | Cc1cc(Cl)c(OCCOCCN2CCNCC2)c(Cl)c1 | – | inconclusive [inhibitor, single point]
14 | CCN1CCN(CCCNC(=O)Cn2nc(C)n3c(cc4c(OC)cccc43)c2=O)CC1 | inactive: 2.02% | –
15 | COc1ccccc1-c1nn(CCC(=O)Nc2ccc(C)cc2)c2nc(C)cc(C)c12 | – | inconclusive [inhibitor, single point]
16 | CCOC(=O)C1(C)CCCN(C(=O)Cc2ccc3ccccc3c2)C1 (stereo unspecified) | – | active: 29.1 µM
17 | COc1ccc2[nH]c(C)cc2c1 | inactive: 1.2% | –
18 | O=C(COC(=O)c1c2c(nc3ccccc13)/C(=C\c1cccs1)CCC2)Nc1ccccc1 | – | active: 20.6 µM
19 | Cc1ccccc1NC(=O)CSc1ccc(-c2ccccn2)nn1 | – | inconclusive [inhibitor, single point]
20 | CCOc1ccccc1C=NN=Cc1ccccc1O | inactive: -16.6% | –
21 | O=C(CN1C(=O)C2CCCCC2C1=O)Nc1nc2ccc(F)cc2s1 (stereo unspecified) | inactive: -4.57% | –
22 | O[C@@H]1C[C@H](c2ccc(Cl)cc2)N(Cc2cccs2)C[C@H]1n1cc(-c2ccc(F)cc2)nn1 | inactive: -21.3% | –
23 | COc1cc(/C=C(/C#N)c2nc3ccccc3[nH]2)ccc1OCC(=O)Nc1ccccc1C(C)C | – | active: 4.61 µM

Row | Compound | activity change, negative = growth inhibition | Potency
24 | Cc1ccc2[nH]c(=O)c(CN(CCCN(C)C)C(=O)Nc3ccc(Cl)cc3)cc2c1 | – | active: 7.08 µM
25 | O=C(NCc1ccccc1Cl)C1=Cc2cc(Br)ccc2OC1 | – | inconclusive [inhibitor, single point]
26 | CC(C)CCN=CC1=C(O)CC(c2ccccc2)CC1=O (stereo unspecified) | inactive: 1.62% | –
27 | Cn1c(=O)c2cc(S(=O)(=O)NCCC(=O)N3CC=C(c4ccccc4)CC3)ccc2n(C)c1=O | – | inconclusive [inhibitor, single point]
28 | CCCCCn1c(CCCNC(=O)c2ccccc2OC)nc2ccccc21 | – | active: 20.6 µM
29 | CC(=O)N1N=C(c2cccc([N+](=O)[O-])c2)OC1c1cccc(Br)c1 (stereo unspecified) | inactive: -3.68% | –
30 | COc1ccc(-c2nn(-c3ccccc3)cc2/C=N/NS(=O)(=O)c2ccccc2)cc1 | – | inconclusive [inhibitor, single point]
31 | CCc1nc(NCc2ccco2)c2oc3ccccc3c2n1 | – | inconclusive [inhibitor, single point]
32 | COc1cc(Cl)c(C)cc1NC(=O)CSc1cc(Cl)ccc1Cl | – | inconclusive [inhibitor, single point]
33 | O=C(Nc1nc2ccccc2[nH]1)c1cccc(F)c1 | – | inconclusive [inhibitor, partial curve]
34 | O=C(O)C1OC(Oc2c(-c3ccc(O)c(O)c3)oc3cc(O)cc(O)c3c2=O)C(O)C(O)C1O (stereo unspecified) | – | inconclusive [inhibitor, partial curve, poor fit]
35 | CCOC(=O)N1CCC(NC(=O)c2oc3c(F)cccc3c2C)CC1 | – | inconclusive [inhibitor, partial curve]
36 | O=C(CSc1nc(C2CCCCC2)n(-c2ccccc2)n1)NCCN1C(=O)CSC1=O | inactive: -18% | –
37 | CCc1ccc(/C=C2\SC(=S)N(CCCC(=O)Nc3ccccn3)C2=O)cc1 | – | inconclusive [inhibitor, single point]
38 | O=C(NCC(c1ccc2c(c1)OCO2)N1CCN(c2ccccc2)CC1)C(=O)Nc1ccccc1F (stereo unspecified) | – | inconclusive [inhibitor, single point]
39 | CCOC(=O)NNC(=O)C1CCC(C)CC1 (stereo unspecified) | – | inactive
40 | CCOc1cc(N2CCOCC2)c(OCC)cc1NC(=O)c1ccc(OC(C)C)cc1 | – | inconclusive [inhibitor, partial curve, poor fit]
41 | Cc1cc(C(=O)OCC(=O)NCc2ccco2)c(C)n1-c1ccc(F)cc1 | – | active: 0.651 µM
42 | COc1cccc(N2CCN(C(=O)c3ccc4nc(N5CCC(C)CC5)sc4c3)CC2)c1 | – | inconclusive [inhibitor, single point]
43 | c1ccc(Oc2nc(N3CCOCC3)nc(N3CCOCC3)n2)cc1 | – | inconclusive [inhibitor, partial curve]
44 | Brc1ccc[n+](CCC2CCCCC2)c1 | – | inconclusive [inhibitor, single point]
45 | CC(C)(CNc1ccc(S(=O)(=O)C(F)(F)F)cc1[N+](=O)[O-])N1CCOCC1 | – | inconclusive [inhibitor, single point]
46 | Nc1ccn([C@@H]2O[C@H](C(=O)Nc3cc(C(F)(F)F)cc(C(F)(F)F)c3)[C@@H](O)[C@H]2O)c(=O)n1 | inactive: -9.33% | –
